Measurements reported in the supplement of paper PMC3334620.
Whole data set: some 33,000 sequences, median “E-score (-0.5 to 0.5)” near -0.012, cut for the highest 2% near 0.27. Some of the results follow.

What follows are sequences tested against T1, Vhr1 (UniProt P40522) (assay: PBM E-score (8-mer binding enrichment) (E-score (-0.5 to 0.5)); higher = stronger / more preferred TF binding; most listed sequences are background and not binding sites). Settings: protein concentration: 200 nM; construct: GST-full length.
T1 sequence: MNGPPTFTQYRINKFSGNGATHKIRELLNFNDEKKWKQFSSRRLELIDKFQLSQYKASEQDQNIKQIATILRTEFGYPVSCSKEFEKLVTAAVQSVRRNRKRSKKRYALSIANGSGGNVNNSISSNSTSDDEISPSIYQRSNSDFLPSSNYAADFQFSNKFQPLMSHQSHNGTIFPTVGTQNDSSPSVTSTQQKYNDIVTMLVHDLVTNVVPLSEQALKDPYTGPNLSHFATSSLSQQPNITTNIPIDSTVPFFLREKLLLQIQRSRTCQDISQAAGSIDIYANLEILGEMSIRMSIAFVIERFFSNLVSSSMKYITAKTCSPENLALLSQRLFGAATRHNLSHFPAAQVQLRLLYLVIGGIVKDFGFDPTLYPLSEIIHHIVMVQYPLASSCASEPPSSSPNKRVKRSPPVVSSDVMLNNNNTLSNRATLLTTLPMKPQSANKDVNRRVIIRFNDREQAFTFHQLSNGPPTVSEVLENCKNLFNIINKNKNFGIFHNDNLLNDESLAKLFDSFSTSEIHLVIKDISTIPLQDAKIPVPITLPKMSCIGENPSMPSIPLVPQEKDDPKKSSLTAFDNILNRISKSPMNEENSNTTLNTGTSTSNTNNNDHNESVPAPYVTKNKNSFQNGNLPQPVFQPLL
Procedure, shortened: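 Using PURExpress in vitro transcription/translation, GST-tagged yeast transcription factors were made in full-length or DNA-binding-domain form. These were applied at about 100-200 nM to double-stranded universal all-10-mer Agilent arrays, and bound protein was detected with fluorescent anti-GST. Scans were normalised with masliner before the Universal PBM Analysis Suite assigned E-scores to ungapped eight-base words pooled with their reverse complements.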
GCCAGCTA was tested, and the “PBM E-score” value was -0.0877. With CGGGTGAA the “PBM E-score” value was 0.0779. For GGCCGGAC, the “PBM E-score” value was -0.117. For ACGGCCGG, the “PBM E-score” value was -0.0486. With TAAGCGAA the “PBM E-score” value was 0.0495. For AATCTTGC, the “PBM E-score” value was 0.0371. For ACATTTGA, the “PBM E-score” value was 0.0557. With CATAGGCC the “PBM E-score” value was -0.0766. For CTACATAA, the “PBM E-score” value was -0.204. GTTGCAAC was tested, and the “PBM E-score” value was -0.0673. TATAACCA was tested, and the “PBM E-score” value was 0.17. In the case of CTAAAGTC, the “PBM E-score” value was -0.165. With CCTGGAGC the “PBM E-score” value was -0.0438. In the case of ACTATTAC, the “PBM E-score” value was 0.0484. TAATTAGA was tested, and the “PBM E-score” value was -0.21. For AATGCCGG, the “PBM E-score” value was -0.22. In the case of ACACGTTC, the “PBM E-score” value was -0.0702. With TGACATCA the “PBM E-score” value was 0.0259. ACCATCGA was tested, and the “PBM E-score” value was 0.0778. With GTCAGCAA the “PBM E-score” value was 0.0775. With AGCCATTA the “PBM E-score” value was 0.101. In the case of AAGAAACC, the “PBM E-score” value was 0.0271. With AAAAATAT the “PBM E-score” value was -0.122. With GCGATCAC the “PBM E-score” value was 0.154. For AAGAGCTA, the “PBM E-score” value was -0.0476. In the case of CTTGGCGA, the “PBM E-score” value was -0.192. In the case of AGACCAAC, the “PBM E-score” value was 0.0107. With CAAGGATG the “PBM E-score” value was -0.0593. For GGCTCAAA, the “PBM E-score” value was -0.178. With CCAACCTC the “PBM E-score” value was 0.098. In the case of ACTCGCCC, the “PBM E-score” value was 0.0982. With CTGTACAC the “PBM E-score” value was -0.013. For ACGTTCAC, the “PBM E-score” value was -0.187. With ACTATAGC the “PBM E-score” value was 0.00988. With CGGAAATC the “PBM E-score” value was -0.00291. CTCGACGC was tested, and the “PBM E-score” value was 0.0904. With TAAGATTA the “PBM E-score” value was 0.0418. For CCAGATGG, the “PBM E-score” value was 0.033. CCATCTAC was tested, and the “PBM E-score” value was 0.0805. For GGTAGGAC, the “PBM E-score” value was -0.0932. For AGGTCACG, the “PBM E-score” value was -0.0701. With ATATTAGC the “PBM E-score” value was 0.0706. In the case of ATAGCGGC, the “PBM E-score” value was -0.00437. For CCTAGCAC, the “PBM E-score” value was -0.177. In the case of AATGACAC, the “PBM E-score” value was 0.0353. In the case of CATAGAGA, the “PBM E-score” value was 0.0124. CCGGACAG was tested, and the “PBM E-score” value was -0.0095. For ACCACCGC, the “PBM E-score” value was -0.0757. CAATTACA was tested, and the “PBM E-score” value was 0.135. AATGGCAA was tested, and the “PBM E-score” value was -0.102. With AGACGCTA the “PBM E-score” value was -0.205. With CCCGCCTC the “PBM E-score” value was 0.212. In the case of CCCGGAAG, the “PBM E-score” value was -0.0845. For ATGGCTCG, the “PBM E-score” value was 0.231. For CAGCATGC, the “PBM E-score” value was 0.108. In the case of CGACAAGA, the “PBM E-score” value was 0.138. With CTCACTCA the “PBM E-score” value was 0.0981. With TGCGCGCA the “PBM E-score” value was 0.29. ATCCTTCC was tested, and the “PBM E-score” value was -0.168. ATAGGGAA was tested, and the “PBM E-score” value was -0.0981. In the case of GGCACTCA, the “PBM E-score” value was -0.22. For CGCAAAGA, the “PBM E-score” value was 0.0308. In the case of ATTAATGC, the “PBM E-score” value was 0.107. In the case of GAATGCAC, the “PBM E-score” value was 0.109. In the case of ACCCGCTC, the “PBM E-score” value was -0.233. In the case of ATGGATCG, the “PBM E-score” value was 0.169. With GCTGCTCA the “PBM E-score” value was -0.165. In the case of CACAAGAG, the “PBM E-score” value was 0.0643. For AGAACTAC, the “PBM E-score” value was -0.0664. For CACCGCTG, the “PBM E-score” value was 0.0535. With GAAGCCAA the “PBM E-score” value was -0.0844. In the case of AGCCCGGG, the “PBM E-score” value was 0.0967. With AATCGCCC the “PBM E-score” value was -0.0276. With AGGATCAT the “PBM E-score” value was 0.059. In the case of GCGGGGTA, the “PBM E-score” value was -0.06. For TCGGACGA, the “PBM E-score” value was -0.063. ACTAAAAT was tested, and the “PBM E-score” value was -0.0643. In the case of AGCAACTG, the “PBM E-score” value was 0.00583. With CTATTCCA the “PBM E-score” value was 0.077. With AATCCAGA the “PBM E-score” value was 0.0151. In the case of ATGCGGCG, the “PBM E-score” value was -0.0219. With GTCCTGAA the “PBM E-score” value was -0.0879. AACTCGTG was tested, and the “PBM E-score” value was 0.15. In the case of AAACTGTT, the “PBM E-score” value was -0.107. With AACATTCT the “PBM E-score” value was -0.0607. CTGGACAC was tested, and the “PBM E-score” value was -0.0232. With CAGAAGAA the “PBM E-score” value was -0.164. TAGCAAGA was tested, and the “PBM E-score” value was -0.0971. With ATTTGGAC the “PBM E-score” value was -0.244. For GCTACTAC, the “PBM E-score” value was 0.131. For CGGTCATA, the “PBM E-score” value was -0.0676. With AAGCACGT the “PBM E-score” value was 0.0424. TACAATGA was tested, and the “PBM E-score” value was 0.172. GGTGAGGA was tested, and the “PBM E-score” value was 0.00616. With CTAAATAA the “PBM E-score” value was -0.192. For GCAATCAA, the “PBM E-score” value was -0.00069. With CCGCGACA the “PBM E-score” value was 0.0878. With ATTACCCC the “PBM E-score” value was -0.0354. For AGCTTCAC, the “PBM E-score” value was -0.102. For CTTATTCC, the “PBM E-score” value was -0.129. With CGGCGACC the “PBM E-score” value was -0.0736. For TACCTGGA, the “PBM E-score” value was 0.117. In the case of AAAAGATC, the “PBM E-score” value was -0.216. TGAAGTAA was tested, and the “PBM E-score” value was -0.166. For ACTTAACC, the “PBM E-score” value was -0.155. GAGCTCCC was tested, and the “PBM E-score” value was -0.0353. With ATCAGGAG the “PBM E-score” value was 0.0643. For AGCGCCAC, the “PBM E-score” value was -0.116. With GTAGATCA the “PBM E-score” value was 0.121. With GAGATAAC the “PBM E-score” value was -0.14. With GTAAGTAA the “PBM E-score” value was -0.116. For CGAGTAGC, the “PBM E-score” value was -0.0947. For ATACAGAC, the “PBM E-score” value was 0.0587. ATAGAGAC was tested, and the “PBM E-score” value was -0.0572. AAGTGGAC was tested, and the “PBM E-score” value was -0.184. ATAGTGAG was tested, and the “PBM E-score” value was 0.0754. In the case of CACATGCA, the “PBM E-score” value was 0.196. For CCCTGTCG, the “PBM E-score” value was 0.114. In the case of AGCCTAAA, the “PBM E-score” value was -0.175. In the case of ATCAGGTA, the “PBM E-score” value was 0.193. With GTAATCTA the “PBM E-score” value was 0.116. With CACCATGG the “PBM E-score” value was 0.041. With ACGCGCTC the “PBM E-score” value was 0.163. With ATCTACAA the “PBM E-score” value was -0.151. ACATGCGC was tested, and the “PBM E-score” value was 0.0977. For AAGGGGAC, the “PBM E-score” value was -0.308. TGCTATAA was tested, and the “PBM E-score” value was -0.132. In the case of AATAAATT, the “PBM E-score” value was -0.045. With ACGGCTAC the “PBM E-score” value was 0.0956. CCGGACCC was tested, and the “PBM E-score” value was -0.0136. In the case of CAGTTAAG, the “PBM E-score” value was 0.00776. With AAGGACGC the “PBM E-score” value was -0.0576. For ATGAAAAA, the “PBM E-score” value was -0.208. AGTTTCAG was tested, and the “PBM E-score” value was -0.0517. With ACCGGTCT the “PBM E-score” value was -0.208. With AAGTGGGT the “PBM E-score” value was 0.216. AAGCGCGT was tested, and the “PBM E-score” value was -0.16. In the case of AAGAGTAG, the “PBM E-score” value was 0.00361. ACATTCGC was tested, and the “PBM E-score” value was -0.0629. With ACCAACGT the “PBM E-score” value was 0.0483. With CGTGAAGC the “PBM E-score” value was -0.219. With TGAGGAAA the “PBM E-score” value was -0.294. In the case of GTAGGCTA, the “PBM E-score” value was -0.132. ATACAACA was tested, and the “PBM E-score” value was 0.162. For ACAAACGG, the “PBM E-score” value was -0.0173. With AGAGCTCC the “PBM E-score” value was -0.305. With ACTCACTA the “PBM E-score” value was 0.254. With ATCGGCAG the “PBM E-score” value was 0.0387. GACAACGA was tested, and the “PBM E-score” value was -0.0359. For ATCAATAC, the “PBM E-score” value was 0.0721. GAGATGCC was tested, and the “PBM E-score” value was -0.17. CCCTTATC was tested, and the “PBM E-score” value was -0.262. In the case of TAGGTCGA, the “PBM E-score” value was -0.0177. For CTGTGAAC, the “PBM E-score” value was -0.24. With CTTTAGCC the “PBM E-score” value was -0.174. In the case of GGCCCCTA, the “PBM E-score” value was -0.184. For CATCGTGA, the “PBM E-score” value was 0.0835. In the case of ATAGTGGA, the “PBM E-score” value was -0.00616. For CGTTCGTC, the “PBM E-score” value was 0.11. For ATAATTAT, the “PBM E-score” value was 0.243. CCTCTACC was tested, and the “PBM E-score” value was -0.0498. With ACCTTTCT the “PBM E-score” value was -0.158. In the case of ATAAATGC, the “PBM E-score” value was -0.0513. In the case of CTTGTGCC, the “PBM E-score” value was -0.0908. GTGAATAA was tested, and the “PBM E-score” value was 0.16. In the case of ATGCTTTG, the “PBM E-score” value was 0.0636. For AGGACCCT, the “PBM E-score” value was -0.213. In the case of CGTAAAAA, the “PBM E-score” value was -0.196. In the case of AGACACAA, the “PBM E-score” value was 0.0182. For CTCACGGA, the “PBM E-score” value was -0.00831. ATTGGGAC was tested, and the “PBM E-score” value was 0.0612. ACACTGCC was tested, and the “PBM E-score” value was 0.281.
